Test results as given in the supplement of paper PMC10126150.
Sequences with one replicate were seen in a single cluster, so their values are uncertain.

Tested on: ATP
Assay: switch fluorescence ratio, 500 uM ATP over buffer (Cy3 cluster intensity, sum of 5 cycles each) (fold (ratio)); higher = stronger signal-on switching upon ATP binding; sequences stand for … in TCGTCGGCAGCGTCAGATGTGTATAAGAGACAGTTTTTTTTTTTTTTTTTTTTTTTTT…TC
Details: aptamer strand: ATP DNA aptamer (quencher-CACCTGGGGGAGTATTGCGGAGGAAGG + anchor), 100 nM annealed; ATP concentration: 500 uM; one replicate
Procedure, shortened: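 The fluorescence ratio divides summed target-cycle Cy3 intensity by summed buffer-cycle Cy3 intensity for each cluster and is averaged per switch-domain sequence. Cy3-labelled switching-strand clusters on a modified Illumina MiSeq flow-cell were annealed to 100 nM quencher-labelled ATP aptamer, then imaged in selection buffer and again after 15 min with 500 uM ATP at 22 °C. Five such cycles were run, with NaOH stripping and re-annealing between them, and clusters outside 100-1000 RFU were excluded.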
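Further: ATP exposure 15 min at 22 °C before imaging.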

Sequence | switch fluorescence ratio
ATCCCTAGTT | 1.02
TTATTCTTG | 1
GGCTTAAGAA | 1.01
GCGTAACTT | 0.991
TTTGCTCCGT | 4.27
GCCGGGACAC | 1.14
CTGGTCTTCA | 1.04
CTTGACTGGG | 1.01
AAATTTCAAC | 1
CTATTTCTAT | 1.02
TTTAGTTGCG | 0.973
ATAGTGGATC | 1.06
ATAAACACCT | 1.47
AAGGGTCTAC | 0.987
ACTGCATGTC | 1.2
GTGCCCCGGT | 1.02
GTGTTCCGAA | 1.03
GTTTGGACGA | 0.969
CGAGGTATGG | 1.02
TGTGGGTCAA | 0.972
TAAATTAGAA | 0.954
ATGTGGAAAT | 1.02

Sequence | switch fluorescence ratio
CTTAGAGTGT | 1.01
ACCGTCCCAT | 0.991
TTCGCCGGAC | 1.04
CGATTTGGTG | 1.02
CAACTTGATC | 0.986
TGTTTAGAAC | 1.11
AGCCACTCGC | 1.06
AGAAAAGTTG | 0.976
TGGTTGAGCA | 0.968
TAAAACTAG | 1.02
TAAGCCTGG | 1.02
TTCCAAGCGC | 1.02
TTCGAGCAGT | 1.41
TGTTAGTTTC | 0.981
AATCGCTCTA | 0.973
TTTGAACAGT | 0.97
CAATTTTCT | 1.02
GAGGGTCCCA | 0.988
CTAGGGTACA | 1.09
GCATCGTGGT | 1.02
TTGATCGTG | 0.947
TTTGTCTTCT | 0.991

Sequence | switch fluorescence ratio
GAGTTCGAGA | 1.01
GCGCCTTCA | 1.31
ACGGAAATA | 1.01
CCATGCCAT | 0.983
CACGGATGTG | 1.04
GCGTGCGCGG | 0.993
TTACAGATAT | 1.01
ATTACGAGCA | 1.2
TCATTTTGTA | 1.02
GCCCATAGTG | 1.25
GAAATGCAAT | 1.75
AAGGTCGCAA | 1.22
AGGATGCAAG | 1.01
AACCGTGGT | 1.02
GCGTTACTCT | 1.31
AAGAGTGTTG | 1.02
AGCGCGTATG | 1.04
AGCGGCTTCT | 1.01
TTAAGTCCAT | 1.05
GAGTCATAA | 0.96
GGGTCTCCGG | 1.03
CGGGAAAACA | 0.99

Sequence | switch fluorescence ratio
CGCCTGAGAT | 0.999
TGCCTTGTGT | 1.01
TTGATGAGGG | 0.927
ACATGGGGCA | 1.04
CGACTCACTC | 1.79
ATCGAATGT | 0.961
TTAAGGTACC | 1.07
AGCCGCATCA | 0.951
GCTGGTATGT | 0.981
AGCTCGCTGC | 0.972
ACAGGCTTCC | 2.2
CTGCGGTGCT | 1.2
GCGACTTGTA | 0.985
TTATTCAGTG | 0.976
TTCCGGGGCT | 0.97
GGATAAAGGG | 0.971
ATCGCAGGA | 0.932
GTTACAATTG | 1.03
CGAGCCTCAA | 1.05
